Source: PubChem BioAssay AID686979 (National Center for Advancing Translational Sciences (NCATS), 2013)
Where “and” joins values, the source holds several entries; their conditions need not be identical. Identical values can stand only once. About 50,000 (12%) of roughly 420,000 compounds were called active. Inconclusive means that the source gave no clear call. Such entries were picked first, then a sample of the others. The call rests on the fitted dose curve; in most records, active means well fitted inhibition curve with a large enough effect; inconclusive means small, poorly fitted or top-dose-only effect; inactive means flat fitted curve, though single readings scatter. No potency is given beside an inconclusive call; the fits are too rough. The source holds several records for some structures; these can differ, active in one and inactive in another.

experiment: qHTS for Inhibitors of human tyrosyl-DNA phosphodiesterase 1 (TDP1): qHTS in cells in presence of CPT; details: chicken DT40 Tdp1-/-;hTDP1 cells + 20 nM CPT, ATP luminescence, 48 h; activity change, negative = growth inhibition: at 46.2 µM (top of the series) unless noted; further: nearly all actives have a fitted effect of over 55% in size
Outline: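 Chicken DT40 Tdp1-/- cells complemented with human TDP1, 400 cells/well, exposed to compounds plus 20 nM camptothecin for at least 48 h at 37 C; viability read as ATP content by CellTiter-Glo luminescence.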
On the % scale 0 is the no-effect control and ±100 the full control effect; potency means the concentration at half of the fitted maximal effect; tags describe the fitted curve by direction and shape.

SMILES | activity change, negative = growth inhibition | Potency
O=P(OC1CCCCC1)(OC1CCCCC1)C(O)c1ccccc1 (stereo not drawn) | inactive: -17.7% | 
CC#CCN1c2ccccc2[C@]23C[C@@H](C(=O)OC)N(C(=O)c4ccco4)C2=NC(C(=O)OC)=C(C(=O)OC)[C@H]13 |  | inconclusive [inhibitor, single point]
O=c1[nH]c(C2CCN(S(=O)(=O)Cc3ccccc3)CC2)nc2c1nnn2Cc1cccc(Cl)c1 |  | active: 16.4 µM
O=C(O)c1cccc(NC(=S)NC(NC(=O)c2ccccc2[N+](=O)[O-])C(Cl)(Cl)Cl)c1 (stereo not drawn) | inactive: -3.29% | 
O=c1c2cccnc2n(Cc2ccc(Cl)cc2)c(=O)n1Cc1ccc(F)cc1 |  | inconclusive [inhibitor, single point]
COCCn1c(=O)cnc2cnc(Oc3ccc(OC)cc3)nc21 | inactive: -25.1% | 
Cc1cccc(OCCCCc2c(C)n[nH]c2C)c1C |  | active: 11.6 µM
CC(CN1CCCCC1)OC(=O)COc1ccc(Br)cc1 (stereo not drawn) | inactive: 3.03% | 
N#Cc1cccc(C=C(C(=O)c2ccccc2)c2ccccc2)c1 |  | active: 11.8 µM
COc1ccc(N2c3ccccc3CN(Cc3ccccc3)[C@@H](C)[C@H]2Cc2ccc(-c3ccccc3)cc2)cc1 |  | active: 23.1 µM
COc1ccc(C2(C(=O)Nc3cc(C)on3)CCOCC2)cc1 | inactive: -17% | 
CCOC(=O)N(C)c1c(CC)nc2c(OCc3ccc(OC(F)F)cc3)cccn12 |  | inconclusive [inhibitor, single point]
CCOc1cc(N2CCOCC2)c(OCC)cc1NC(=O)c1ccccc1C | inactive: -24.8% | 
Cc1cc(N2CCN(C)CC2)nc2ccc(NC(=O)c3ccccc3F)cc12 |  | inactive and active: 18.4 µM
Cc1cc2c(c(=O)o1)C(Cc1ccccc1)C(C#N)=C(N)O2 (stereo not drawn) | inactive: -0.966% | 
N=C1SCC(=O)N1/N=C/c1ccccc1 | inactive: -7.02% | 
O=C1c2ccccc2C(O)(c2ncc[nH]2)N1CCc1ccccc1 (stereo not drawn) |  | inconclusive [inhibitor, single point]
COCCNc1nc(Nc2ccc(Cl)cc2F)c2sccc2n1 |  | active: 13 µM
N#Cc1nc(-c2ccc(OCc3ccc(Cl)cc3)cc2)oc1N1CCCCCC1 |  | inconclusive [inhibitor, single point]
Cc1ccc(NC(=O)CSc2nc(=O)n(CCCN3CCOCC3)c3c2CCCC3)cc1 | inactive: -19.1% | 
O=C(NCCCc1nc2ccccc2n1CCCOc1ccccc1)C1CCCCC1 |  | active: 11.2 µM
CCc1nc2c(OCc3ccccc3)cccn2c1N(C)C(=O)c1ccco1 |  | inconclusive [inhibitor, single point]
CCN(CC)c1ccc(C2Nc3cccc4cccc(c34)N2)cc1 |  | inconclusive [inhibitor, single point]
CCN(CC)CCN(C)C(c1ccnc2ccccc12)c1nnnn1-c1ccc2c(c1)OCCO2 (stereo not drawn) | inactive: -31.6% | 

SMILES | activity change, negative = growth inhibition | Potency
COc1ccc([C@@H]2[C@@H]3C(=O)N(C(C)(C)C)C(=O)[C@@H]3[C@]3(Cc4ccccc4)C(=O)N(c4cccc(Cl)c4)C(=O)N23)cc1 | inactive: -19.5% | 
O=C(NCCc1ccc(Cl)cc1)C1CCN(C(=O)N2CCOc3ccccc32)CC1 |  | active: 25.9 µM
N#CC1(c2ccccc2)CCCN1C(=O)c1ccccc1Cl (stereo not drawn) | inactive: -3.06% | 
CC(C)(C)c1ccc(CC(=O)N2CCC2(C)C(=O)NCc2ccc(Cl)cc2)cc1 (stereo not drawn) |  | inconclusive [inhibitor, single point]
CC(=O)Nc1ccc(NC(=O)CC2CCCC2)cc1 | inactive: 0.0692% | 
Cn1c2ccccc2c(=O)c2cc(C#Cc3ccc(N)cc3)ccc21 |  | inconclusive [inhibitor, single point]
COc1ccc(CN2CC[C@H]3C=CC[C@@H](C(=O)N4CCN(c5ccccc5)CC4)[C@H]3C2=O)cc1OC | inactive: -28.4% | 
O=c1cc(-c2ccc(O)cc2)oc2ccc3ccccc3c12 |  | inconclusive [inhibitor, single point]
COc1ccc(OC)c(CN2CCN(C(=O)c3cc4ccccc4cc3O)CC2)c1 |  | inconclusive [inhibitor, single point]
COc1ccccc1OCCOCCOc1ccc(C)cc1Br |  | inconclusive [inhibitor, single point]
CCC(=O)NCc1nc(-c2cccc(NC(=O)c3ccc(C)s3)c2)oc1C |  | inconclusive [inhibitor, single point]
O=C(CC1SC(N2CCCCC2)=NC1=O)Nc1ccc(C(=O)NCCc2ccc(F)cc2)cc1 (stereo not drawn) |  | inconclusive [inhibitor, partial curve]
Cc1c(C)c2ccc(OC(C)C(=O)N3CC[C@@]4(O)CCCC[C@H]4C3)c(C)c2oc1=O (stereo partly drawn) |  | inconclusive [inhibitor, single point]
Cc1cc(OCC(=O)Nc2ccc(C(=O)OC3CCCCC3)cc2)ccc1Cl |  | inconclusive [inhibitor, full curve, poor fit]
CCn1ccc(C(=O)Nc2c(C)nn(Cc3c(F)c(F)c(F)c(F)c3F)c2C)n1 |  | inconclusive [inhibitor, partial curve]
O=C(CSCc1ccc(Cl)cc1)NCc1ccccn1 | inactive: -3.6% | 
CC(C)c1ccc(C(=O)CC2(O)C(=O)N(CCc3ccccc3)c3ccc(Cl)cc32)cc1 (stereo not drawn) |  | inconclusive [inhibitor, single point]
O/N=C/c1ccc2ccccc2n1 | inactive: -2.21% | 
O=c1[nH]c(NCCO)c(N=Cc2ccccc2)c(=O)[nH]1 |  | inconclusive [inhibitor, single point]
COc1cccc(/C=N/NC(=O)CCCC(=O)Nc2ccc(Br)cc2)c1 |  | active: 20.6 µM
C=CCn1c(SCC(=O)NCC2CCCO2)nnc1C1CCCCC1 (stereo not drawn) | inactive: -5.53% | 
Cc1cc2ccccn2c1C(=O)c1ccc([N+](=O)[O-])o1 |  | active: 23.1 µM
Cc1sc2nc(NCCO)[nH]c(=O)c2c1C |  | inconclusive [inhibitor, single point]
CC1CCN(C2=NC(=O)/C(=C/c3cn(-c4ccccc4)nc3-c3cccc(S(=O)(=O)N(C)C)c3)S2)CC1 |  | active: 7.31 µM
